# Measurements from the supplement of paper PMC8728848.
# The list shows a part of the results.
# B1: Epa1-NP-mutant-Y228A (Candida glabrata), Q6VBJ0 (protein)
# chain: MILNPALFLNKCVCIYTTLILLLLTNGGYATSSNDISLASKDPTTFPLGCSPDITTPKKGLSMELYSYDFRKKGSYPCWDAAYLDPNYPRTGYKSHRLLAKVDGVTGNINFYYHATKGCTPQLGHLPASYNYPKPLTMTNFTMLLYGYFRPKVTGFHTFTISADDLLFVNFGAGNAFDCCRRDSSADHFGNYQAYAIWGSKTAKDELTVHLDAGVYYPIRLFYNNREADGALSFTFKTESNENTVSDFSEYFFSLDDTEEGCPGLISYDSSCASVKTSKIIGIDYHTETPNENLVPITKTIYHLGIPCTGTTTTPLCGSGFYDPLANKCVTINTSSTSSVTKTTSHTTSKEVSFHSSISSQKTLIPKSIPSPYGPIKSQSIPTEMETSSEISSSEYAFSDVISTPSHSPYTKKHSSLNSSSYTSTVIHSLTSYSISQGIFSTSLSEQNITSKSSTDKFSTATSMSNNITQSSIIISQFSTNNENYTTTSMHTSSDKISTETLNNSISTTTSILFSNSSTILKNNTTIISSDKDTHYHPVNPTIVCSTNKTEIICASITQPSISNSNNHWSSSVLKFNSTTVRSTLPSSAGSNETSINVPFSSSTESNTSTSSTSTSNSKMVRSTLPSSAGSNETSISVPFSSSTESNTSTSSTSTSNSKMVRSTLPSSAGSNETSINVPFSSSTESNTSTSSTSTSNSKTVRSTPFSSAGIIMTSLSQRNNKSASSYASSNSKCYNTADSCRKVHSTPSYLLTSSYTSEGVDYDCSLVSTKLKINDTNCVNNKHTTKSCLKTSVTTTIPTLEIKTARKSSSNTIGLHSYPTSSPNKSISSAPIIGYISSFKTIKTASPSYQTSDLTTITTITSLNNPGSTAVENTHESNDKSRKTSSNDISSKHSVIKETKDAVESSNKSHQTNTLKCSSIIIASSSHNSYESLGGTTLTLTLSKVYSPQNNDTLPFLEISEVNPSRTVLPESSKMMQYLTSTEERNKTARNTIATNIVSISTFHFEGEGNAIRMGYTQLLLMLIGIIVMNIGT
# Columns and labels:
# Assay in all cases: glycan array binding signal (z-score within array); higher = stronger binding
# Conditions in all cases: glycan notation: IUPAC condensed, linker removed; mutation: Y228A
# [1] = target: Man(a1-2)Man(a1-3)[Man(a1-2)Man(a1-6)]Man
# Procedure, shortened: (§1)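 Glycan array data came from 3228 arrays in the Consortium for Functional Glycomics database, and only arrays with an available protein sequence were kept. Glycan names were put into IUPAC-condensed notation, and columns mapping to the same glycan were averaged. The binding signal is a within-array Z-score, averaged across arrays of one protein sequence run at different concentrations or buffers and across linkers. A negative Z-score can be read as non-binding.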
# [2] = target: Man(a1-2)Man(a1-3)[Man(a1-2)Man(a1-6)]Man(a1-6)[Man(a1-2)Man(a1-2)Man(a1-3)]Man
# Procedure, shortened: as §1
# [3] = target: Man(a1-2)Man(a1-3)[Man(a1-2)Man(a1-6)]Man(a1-6)[Man(a1-2)Man(a1-2)Man(a1-3)]Man(b1-4)GlcNAc(b1-4)GlcNAc
# Procedure, shortened: as §1
# [4] = target: Man(a1-2)Man(a1-3)[Man(a1-6)]Man(a1-6)[Man(a1-2)Man(a1-3)]Man(b1-4)GlcNAc(b1-4)GlcNAc
# Procedure, shortened: as §1
# [5] = target: Man(a1-2)Man(a1-6)[Man(a1-3)]Man(a1-6)[Man(a1-2)Man(a1-2)Man(a1-3)]Man
# Procedure, shortened: as §1
# [6] = target: Man(a1-2)Man(a1-6)[Man(a1-3)]Man(a1-6)[Man(a1-2)Man(a1-2)Man(a1-3)]Man(b1-4)GlcNAc(b1-4)GlcNAc
# Procedure, shortened: as §1
# Man(a1-3)[Man(a1-6)]Man = target: Man(a1-3)[Man(a1-6)]Man
# Procedure, shortened: as §1
# [7] = target: Man(a1-3)[Man(a1-6)]Man(a1-6)[Man(a1-2)Man(a1-3)]Man(b1-4)GlcNAc(b1-4)GlcNAc
# Procedure, shortened: as §1
# [8] = target: Man(a1-3)[Man(a1-6)]Man(a1-6)[Man(a1-3)]Man
# Procedure, shortened: as §1
# [9] = target: Man(a1-3)[Man(a1-6)]Man(a1-6)[Man(a1-3)]Man(b1-4)GlcNAc(b1-4)GlcNAc
# Procedure, shortened: as §1
# [10] = target: Man(a1-3)[Man(a1-6)]Man(b1-4)GlcNAc(b1-4)GlcNAc
# Procedure, shortened: as §1
# [11] = target: Man(a1-3)[Man(a1-6)]Man(b1-4)GlcNAc(b1-4)[Fuc(a1-6)]GlcNAc
# Procedure, shortened: as §1
# Man(a1-6)Man = target: Man(a1-6)Man
# Procedure, shortened: as §1
# Man(b1-4)GlcNAc = target: Man(b1-4)GlcNAc
# Procedure, shortened: as §1
# MurNAc(b1-4)GlcNAc = target: MurNAc(b1-4)GlcNAc
# Procedure, shortened: as §1
# Neu5Ac(a2-3)Gal = target: Neu5Ac(a2-3)Gal
# Procedure, shortened: as §1
# [12] = target: Neu5Ac(a2-3)Gal(b1-3)GalNAc
# Procedure, shortened: as §1
# [13] = target: Neu5Ac(a2-3)Gal(b1-3)GalNAc(b1-3)Gal(a1-4)Gal(b1-4)Glc
# Procedure, shortened: as §1
# [14] = target: Neu5Ac(a2-3)Gal(b1-3)GalNAc(b1-4)Gal(b1-4)Glc
# Procedure, shortened: as §1
# [15] = target: Neu5Ac(a2-3)Gal(b1-3)GalNAc(b1-4)[Neu5Ac(a2-3)]Gal(b1-4)Glc
# Procedure, shortened: as §1
# [16] = target: Neu5Ac(a2-3)Gal(b1-3)GalNAc(b1-4)[Neu5Ac(a2-8)Neu5Ac(a2-3)]Gal(b1-4)Glc
# Procedure, shortened: as §1
# [17] = target: Neu5Ac(a2-3)Gal(b1-3)GalNAc6S
# Procedure, shortened: as §1
# [18] = target: Neu5Ac(a2-3)Gal(b1-3)GlcNAc
# Procedure, shortened: as §1
# [19] = target: Neu5Ac(a2-3)Gal(b1-3)GlcNAc(b1-2)Man
# Procedure, shortened: as §1
# [20] = target: Neu5Ac(a2-3)Gal(b1-3)GlcNAc(b1-2)Man(a1-3)[GlcNAc(b1-4)][Neu5Ac(a2-3)Gal(b1-3)GlcNAc(b1-2)Man(a1-6)]Man(b1-4)GlcNAc(b1-4)GlcNAc
# Procedure, shortened: as §1
# [21] = target: Neu5Ac(a2-3)Gal(b1-3)GlcNAc(b1-2)Man(a1-3)[Neu5Ac(a2-3)Gal(b1-3)GlcNAc(b1-2)Man(a1-6)]Man(b1-4)GlcNAc(b1-4)GlcNAc
# Procedure, shortened: as §1
# [22] = target: Neu5Ac(a2-3)Gal(b1-3)GlcNAc(b1-2)[Neu5Ac(a2-3)Gal(b1-3)GlcNAc(b1-4)]Man(a1-6)[Neu5Ac(a2-3)Gal(b1-3)GlcNAc(b1-2)Man(a1-3)]Man(b1-4)GlcNAc(b1-4)GlcNAc
# Procedure, shortened: as §1
# [23] = target: Neu5Ac(a2-3)Gal(b1-3)GlcNAc(b1-3)Gal(b1-3)GlcNAc
# Procedure, shortened: as §1
# [24] = target: Neu5Ac(a2-3)Gal(b1-3)GlcNAc(b1-3)Gal(b1-4)GlcNAc
# Procedure, shortened: as §1
# [25] = target: Neu5Ac(a2-3)Gal(b1-3)GlcNAc(b1-3)GalNAc
# Procedure, shortened: as §1
binder,measurement,setting,value
B1,glycan array binding signal (z-score),[1],-0.117
same,glycan array binding signal (z-score),[2],-0.302
same,glycan array binding signal (z-score),[3],-0.389
same,glycan array binding signal (z-score),[4],-0.291
same,glycan array binding signal (z-score),[5],-0.215
same,glycan array binding signal (z-score),[6],-0.23
same,glycan array binding signal (z-score),Man(a1-3)[Man(a1-6)]Man,-0.255
same,glycan array binding signal (z-score),[7],-0.126
same,glycan array binding signal (z-score),[8],-0.287
same,glycan array binding signal (z-score),[9],-0.219
same,glycan array binding signal (z-score),[10],-0.161
same,glycan array binding signal (z-score),[11],-0.064
same,glycan array binding signal (z-score),Man(a1-6)Man,-0.192
same,glycan array binding signal (z-score),Man(b1-4)GlcNAc,-0.188
same,glycan array binding signal (z-score),MurNAc(b1-4)GlcNAc,-0.126
same,glycan array binding signal (z-score),Neu5Ac(a2-3)Gal,-0.247
same,glycan array binding signal (z-score),[12],-0.298
same,glycan array binding signal (z-score),[13],-0.275
same,glycan array binding signal (z-score),[14],-0.014
same,glycan array binding signal (z-score),[15],-0.242
same,glycan array binding signal (z-score),[16],-0.09
same,glycan array binding signal (z-score),[17],-0.313
same,glycan array binding signal (z-score),[18],-0.167
same,glycan array binding signal (z-score),[19],-0.265
same,glycan array binding signal (z-score),[20],-0.266
same,glycan array binding signal (z-score),[21],-0.12
same,glycan array binding signal (z-score),[22],0.002
same,glycan array binding signal (z-score),[23],-0.295
same,glycan array binding signal (z-score),[24],-0.327
same,glycan array binding signal (z-score),[25],-0.243
